In paper PMC4551323 (Molecular Biology of the Cell, 2015):

Assays:
[1] = target: HA-tagged type II TGF-β receptor (TβRII) (human, UniProt P37173 23-567); assay: patch/FRAP
[2] = target: HA-tagged ALK1 (UniProt P37023 22-503); assay: patch/FRAP

UniProt P37173, sequence (P37173 23-567): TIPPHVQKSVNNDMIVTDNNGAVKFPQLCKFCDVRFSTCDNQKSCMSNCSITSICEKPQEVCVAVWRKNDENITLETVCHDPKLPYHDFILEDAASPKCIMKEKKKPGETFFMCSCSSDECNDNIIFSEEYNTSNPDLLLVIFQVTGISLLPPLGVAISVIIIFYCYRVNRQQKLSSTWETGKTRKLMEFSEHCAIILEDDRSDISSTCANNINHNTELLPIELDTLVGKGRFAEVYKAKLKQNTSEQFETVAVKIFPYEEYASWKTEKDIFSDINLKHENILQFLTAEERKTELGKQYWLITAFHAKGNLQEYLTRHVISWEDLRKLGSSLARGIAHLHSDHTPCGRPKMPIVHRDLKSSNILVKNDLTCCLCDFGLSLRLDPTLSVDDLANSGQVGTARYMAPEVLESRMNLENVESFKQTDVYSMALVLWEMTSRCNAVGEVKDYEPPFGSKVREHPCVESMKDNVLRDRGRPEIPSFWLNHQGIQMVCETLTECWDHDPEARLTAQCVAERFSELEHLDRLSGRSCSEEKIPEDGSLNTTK

B1: myc-tagged ALK1 (receptor)
chain: not shown
[1]
  percent reduction in Rf (ΔRf): ~30%
[2]
  percent in homodimers (ΔRf x 2): ~60%
  percent reduction in Rf (ΔRf): ~30%
